From PubChem BioAssay (NCI)
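Method: 48-hour compound exposure of cells in 96-well plates, five concentrations, linear interpolation of endpoints. GI50: concentration for 50% inhibition of growth. TGI: concentration producing complete growth inhibition.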

Each compound was assayed on NCI-H322M lung (assay: growth of human tumour cells (NCI), 48 h).
`Oc1ccc(CSc2nnc(-c3ccc(Cl)cc3)o2)c2cccnc12` was tested, and the GI50 was 1920 nM and the TGI was > 100000 nM. `O=C(CCCCCCNC(=O)c1csc(Br)n1)NO` was tested, and the GI50 was 2780 nM and the TGI was > 33300 nM. `Nc1nc(N)c2c(n1)NC(c1ccc(Cl)cc1)CC(c1ccc(Nc3nc(NCCO)nc(Nc4ccc(Cl)cc4)n3)cc1)=N2` (stereo unspecified) gave a GI50 of 2020 nM and a TGI of 4890 nM.
